Experimental data taken from PubChem BioAssay (Tox21).
Several values for one entry are separate records, joined by “and”; a condition that tells them apart may be missing. Equal entries are not always repeated. The inconclusive results got no clear call from the source; some entries with a clear call stand among them for comparison. For part of these data: A potency beside an inconclusive call is a rough fit, not a confirmed value. Activity calls are given as the source filed them. Unless noted, calls come from the whole dose curve; as a rule, active = well fitted curve in the direction sought with a large enough effect in the repeat runs; inconclusive = weak or mixed curves; inactive = no such curve, though single readings can be large; an effect the other way counts as inactive or inconclusive.

Columns and labels:
[1] = biological target: Peroxisome proliferator-activated receptor gamma (Homo sapiens) (UniProt P37231); assay: qHTS assay to identify small molecule antagonists of the peroxisome proliferator-activated receptor gamma (PPARg) signaling pathway (AID 743191; calls by dose curve; note: nearly all actives have a fitted effect of over 30% in size; note: potency is the fitted concentration of half-maximal effect; for ratio activity, negative = inhibition: % is set by controls: 0 for no effect and ±100 for the full control effect); conditions: HEK293H PPARg-UAS-bla, beta-lactamase ratio, antagonist, 17 h; ratio activity, negative = inhibition: at 62.6 µM (top of the series) unless noted
UniProt P37231, sequence (P37231 whole entry, looked up): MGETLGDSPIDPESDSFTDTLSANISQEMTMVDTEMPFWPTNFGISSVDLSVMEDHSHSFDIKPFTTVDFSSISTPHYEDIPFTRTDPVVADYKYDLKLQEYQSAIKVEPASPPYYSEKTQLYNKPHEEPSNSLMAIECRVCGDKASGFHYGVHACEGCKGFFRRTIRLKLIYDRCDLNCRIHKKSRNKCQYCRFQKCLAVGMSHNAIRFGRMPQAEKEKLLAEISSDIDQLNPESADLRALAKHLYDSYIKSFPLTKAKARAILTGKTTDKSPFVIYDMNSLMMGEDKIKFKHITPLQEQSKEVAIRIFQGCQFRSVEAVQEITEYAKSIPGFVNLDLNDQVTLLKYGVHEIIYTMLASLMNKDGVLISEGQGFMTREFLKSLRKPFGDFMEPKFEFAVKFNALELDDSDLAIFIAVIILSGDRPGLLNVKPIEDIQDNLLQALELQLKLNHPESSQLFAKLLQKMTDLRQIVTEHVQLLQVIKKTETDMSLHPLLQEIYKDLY
In short: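 GeneBLAzer PPARg UAS-bla HEK293H cells carrying a UAS-driven beta-lactamase reporter were plated at 3000 cells/well, preincubated 5 h at 37C, then given compound for 17 h at 37C; LiveBLAzer B/G FRET substrate was read after 1 h at room temperature.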

[2] = qHTS assay to identify small molecule antagonists of the peroxisome proliferator-activated receptor gamma (PPARg) signaling pathway - cell viability counter screen (AID 743194); conditions: PPARg-bla HEK293H viability, CellTiter-Glo luminescence, 17 h; Potency: co-treated with 50 nM rosiglitazone unless noted; activity change, negative = cytotoxicity: at 62.6 µM (top of the series), co-treated with 50 nM rosiglitazone unless noted; note: % is set by controls: 0 for no effect and ±100 for the full control effect; nearly all actives have a fitted effect of over 55% in size
In short: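 PPARg-UAS-bla HEK293H cells were plated, rested 5 h at 37 C, then treated with compounds plus rosiglitazone (50 nM final) for 17 h at 37 C; viability was then read by CellTiter-Glo luminescence after 30 min at room temperature.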

[3] = qHTS assay for small molecule agonists of the antioxidant response element (ARE) signaling pathway (AID 743202; active = well fitted activation curve with a large enough effect in the signal ratio in the repeat runs, not every such curve was filed as active; inconclusive = weak or mixed curves, or effect the other way; inactive = no such curve, though single readings can be large or run the other way; the % refers to the signal ratio; note: potency is the fitted concentration of half-maximal effect; for activation: % is set by controls: 0 for no effect and ±100 for the full control effect); conditions: HepG2 ARE-bla reporter, beta-lactamase FRET, 16 h; activation: at 73.3 µM (top of the series) unless noted
In short: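 Steps: seed ARE-bla HepG2 cells (2,000/well); incubate 5 h at 37 C; add compounds by pin tool; incubate 16 h at 37 C; add FRET substrate; read fluorescence after 2 h at RT.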

[4] = qHTS assay for small molecule agonists of the antioxidant response element (ARE) signaling pathway - cell viability counter screen (AID 743203; calls by dose curve; note: potency is the fitted concentration of half-maximal effect; nearly all actives have a fitted effect of over 55% in size)
In short: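 Luminescence read-out (CellTiter-Glo, 30 min at room temperature) measured cell viability in the same wells as the ARE beta-lactamase reporter. HepG2 ARE-bla cells were treated with compounds for 16 hrs at 37C/5% CO2.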

[5] = qHTS assay to identify small molecule agonists of the peroxisome proliferator-activated receptor delta (PPARd) signaling pathway - cell viability counter screen (AID 743211); conditions: PPARd-bla HEK293H viability, CellTiter-Glo luminescence, 17 h; activity change, negative = cytotoxicity: at 62.6 µM (top of the series) unless noted; note: potency is the fitted concentration of half-maximal effect; nearly all actives have a fitted effect of over 55% in size
In short: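 Multiplexed format: after the 2 h room-temperature LiveBLAzer B/G FRET step, CellTiter-Glo was added to the same wells. Luminescence after 30 min gave cell viability; compound exposure was 17 h at 37C.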

[6] = biological target: Peroxisome proliferator-activated receptor delta (Homo sapiens) (UniProt Q03181); assay: qHTS assay to identify small molecule agonists of the peroxisome proliferator-activated receptor delta (PPARd) signaling pathway (AID 743212; calls by dose curve; note: potency is the fitted concentration of half-maximal effect; for activation: % is set by controls: 0 for no effect and ±100 for the full control effect); conditions: HEK293H PPARd-UAS-bla, beta-lactamase FRET ratio, 17 h; activation: at 62.6 µM (top of the series) unless noted
UniProt Q03181, sequence (Q03181 whole entry, looked up): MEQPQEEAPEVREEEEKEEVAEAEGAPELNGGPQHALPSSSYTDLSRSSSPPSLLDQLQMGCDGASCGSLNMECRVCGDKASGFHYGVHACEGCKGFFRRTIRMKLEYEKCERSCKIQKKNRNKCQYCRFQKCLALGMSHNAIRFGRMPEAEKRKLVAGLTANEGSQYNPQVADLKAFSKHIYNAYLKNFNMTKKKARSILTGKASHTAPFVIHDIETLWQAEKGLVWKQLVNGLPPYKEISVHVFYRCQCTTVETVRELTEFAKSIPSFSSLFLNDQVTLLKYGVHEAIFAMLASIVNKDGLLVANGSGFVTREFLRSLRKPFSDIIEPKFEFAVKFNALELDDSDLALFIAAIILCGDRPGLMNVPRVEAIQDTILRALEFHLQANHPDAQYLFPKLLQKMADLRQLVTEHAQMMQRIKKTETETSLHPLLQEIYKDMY
In short: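 Cells expressing a UAS-driven beta-lactamase reporter (PPARd-bla HEK293H) were given test compounds after a 5 h settle and kept at 37 C. Reporter activity was then measured as FRET fluorescence using LiveBLAzer B/G substrate.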

[7] = qHTS assay to identify small molecule antagonists of the peroxisome proliferator-activated receptor delta (PPARd) signaling pathway - cell viability counter screen (AID 743213); conditions: PPARd-bla HEK293H viability, CellTiter-Glo luminescence, 17 h; viability change, negative = cytotoxic: at 62 µM (top of the series) unless noted; note: potency is the fitted concentration of half-maximal effect; nearly all actives have a fitted effect of over 50% in size
In short: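 CellTiter-Glo was added to PPARd-bla HEK293H wells following 17 h compound treatment in the presence of 300 nM L165041. Luminescence was recorded after 30 min at room temperature.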

[8] = qHTS assay to identify small molecule agonists of the farnesoid-X-receptor (FXR) signaling pathway - cell viability counter screen (AID 743218); conditions: FXR-bla HEK293T viability, CellTiter-Glo luminescence, 16 h; viability change, negative = cytotoxic: at 62.6 µM (top of the series) unless noted; note: nearly all actives have a fitted effect of over 45% in size; note: potency is the fitted concentration of half-maximal effect; for viability change, negative = cytotoxic: % is set by controls: 0 for no effect and ±100 for the full control effect
In short: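 Luminescence from CellTiter-Glo, read after 30 min at RT, reports viability of GeneBLAzer FXR-UAS-bla HEK 293T cells treated 16 h with compounds in the wells used for the beta-lactamase reporter.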

[9] = qHTS assay to identify small molecule agonists of the vitamin D receptor (VDR) signaling pathway - cell viability counter screen (AID 743224); note: potency is the fitted concentration of half-maximal effect; nearly all actives have a fitted effect of over 50% in size
In short: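 Cytotoxicity counter screen: VDR-bla cells, 16 h compound exposure at 37C, 5% CO2; CellTiter-Glo luminescence, 30 min RT, same wells as bla read.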

[10] = qHTS assay to identify small molecule antagonists of the vitamin D receptor (VDR) signaling pathway - cell viability counter screen (AID 743225); conditions: VDR-bla HEK293T viability, CellTiter-Glo luminescence, 16 h; viability change, negative = cytotoxic: at 61 µM (top of the series) unless noted; note: potency is the fitted concentration of half-maximal effect; nearly all actives have a fitted effect of over 50% in size
In short: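 Cytotoxicity toward the VDR-bla HEK 293T line was scored by ATP-based CellTiter-Glo luminescence, read in the wells already used for the beta-lactamase readout after 16 h compound treatment under 3 nM 1-alpha,25-dihydroxyvitamin D3 stimulation.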

[11] = qHTS assay to identify small molecule agonists of the NFkB signaling pathway - cell viability counter screen (AID 1159515; calls by dose curve; note: nearly all actives have a fitted effect of over 55% in size; note: potency is the fitted concentration of half-maximal effect)
In short: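 ME-180 NFkB-bla cells, 2,000/well; overnight attach; compound 5 hr, 37 C/5% CO2; LiveBLAzer substrate 1.5 hr RT; then CellTiter-Glo in same wells, 30 min RT, luminescence read.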

[12] = qHTS assay for small molecule activators of the heat shock response signaling pathway - cell viability counter screen (AID 743209); conditions: HSE-bla HeLa viability, CellTiter-Glo luminescence, 5 h; activity change, negative = cytotoxicity: at 62.6 µM (top of the series) unless noted; note: potency is the fitted concentration of half-maximal effect; nearly all actives have a fitted effect of over 50% in size
In short: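 HSE-bla HeLa; 1500 cells/well; overnight 37 C, 5% CO2; compound 5 h 37 C; LiveBLAzer B/G substrate 2.5 h RT; CellTiter-Glo 30 min RT; luminescence.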

[13] = qHTS assay for small molecule activators of the heat shock response signaling pathway (AID 743210; active = well fitted activation curve with a large enough effect in the signal ratio in the repeat runs, with a control signal flat, not every such curve was filed as active; inconclusive = weak or mixed curves; the % refers to the signal ratio; note: potency is the fitted concentration of half-maximal effect); conditions: HeLa HSE-bla reporter, beta-lactamase ratio, 5 h; activation: at 62.6 µM (top of the series)
In short: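 Activation of heat shock element-controlled beta-lactamase expression is measured in HeLa cells by LiveBLAzer FRET fluorescence, with compound exposure lasting 5 h at 37 C and substrate loading 2.5 h at room temperature.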

[14] = biological target: Bile acid receptor (Homo sapiens) (UniProt Q96RI1); assay: qHTS assay to identify small molecule antagonists of the farnesoid-X-receptor (FXR) signaling pathway (AID 743217; active = well fitted inhibition curve with a large enough effect in the signal ratio in the repeat runs, not every such curve was filed as active; inconclusive = weak or mixed curves, or effect the other way; inactive = no such curve, though single readings can be large or run the other way; the % refers to the signal ratio; note: potency is the fitted concentration of half-maximal effect); conditions: HEK293T FXR-UAS-bla, beta-lactamase ratio, CDCA-stimulated, 16 h; activity change, negative = inhibition: at 62.6 µM (top of the series) unless noted
UniProt Q96RI1, sequence (Q96RI1 whole entry, looked up): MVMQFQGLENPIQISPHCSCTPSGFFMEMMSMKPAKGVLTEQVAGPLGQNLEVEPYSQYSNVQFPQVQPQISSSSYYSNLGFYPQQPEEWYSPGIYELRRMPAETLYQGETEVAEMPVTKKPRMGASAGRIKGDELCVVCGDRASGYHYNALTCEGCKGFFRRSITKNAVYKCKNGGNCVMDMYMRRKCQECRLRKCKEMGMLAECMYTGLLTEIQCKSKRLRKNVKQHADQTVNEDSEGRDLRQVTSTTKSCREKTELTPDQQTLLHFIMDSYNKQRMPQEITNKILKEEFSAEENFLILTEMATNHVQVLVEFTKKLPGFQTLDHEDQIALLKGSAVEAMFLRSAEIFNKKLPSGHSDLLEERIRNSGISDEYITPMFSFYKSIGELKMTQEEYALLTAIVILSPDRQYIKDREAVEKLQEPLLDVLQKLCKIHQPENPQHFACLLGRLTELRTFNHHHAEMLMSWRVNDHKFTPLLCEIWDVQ
In short: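 Read-out: beta-lactamase FRET fluorescence (LiveBLAzer B/G substrate, 2 h, room temperature) in GeneBLAzer FXR-UAS-bla HEK 293T cells. Compounds were co-dosed with 50 uM chenodeoxycholic acid (final) and incubated 16 h at 37 °C.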

[15] = biological target: Bile acid receptor (Homo sapiens) (UniProt Q96RI1); assay: qHTS assay to identify small molecule agonists of the farnesoid-X-receptor (FXR) signaling pathway (AID 743220; active = well fitted activation curve with a large enough effect in the signal ratio in the repeat runs, not every such curve was filed as active; inconclusive = weak or mixed curves, or effect the other way; the % refers to the signal ratio; note: potency is the fitted concentration of half-maximal effect); conditions: HEK293T FXR-UAS-bla, beta-lactamase FRET ratio, 16 h; activation: at 62.6 µM (top of the series) unless noted
In short: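 FXR-UAS-bla HEK 293T cells carrying a UAS-driven beta-lactamase reporter were plated for 5 h at 37C/5% CO2, then exposed to DMSO-dissolved Tox21 10K compounds for 16 h at 37C. A LiveBLAzer B/G FRET substrate was loaded for 2 h at room temperature before fluorescence reading.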

[16] = qHTS assay to identify small molecule antagonists of the farnesoid-X-receptor (FXR) signaling pathway - cell viability counter screen (AID 743221; active = well fitted cell-killing curve with a large enough effect in the repeat runs, not every such curve was filed as active; inconclusive = weak or mixed curves, or effect the other way; inactive = no such curve, though single readings can be large or run the other way); conditions: FXR-bla HEK293T viability, CellTiter-Glo luminescence, 16 h; activity change, negative = cytotoxicity: at 62.6 µM (top of the series) unless noted
In short: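 CellTiter-Glo, 30 min RT, luminescence; same wells as the LiveBLAzer FRET read. Cells: FXR-UAS-bla HEK 293T. Treatment: compound with chenodeoxycholic acid 50 uM final, 16 h at 37 C.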

[17] = biological target: Vitamin D3 receptor (Homo sapiens) (UniProt P11473); assay: qHTS assay to identify small molecule antagonists of the vitamin D receptor (VDR) signaling pathway (AID 743223; active = well fitted inhibition curve with a large enough effect in the signal ratio in the repeat runs, not every such curve was filed as active; inconclusive = weak or mixed curves, or effect the other way; inactive = no such curve, though single readings can be large or run the other way; the % refers to the signal ratio; note: potency is the fitted concentration of half-maximal effect); conditions: VDR-UAS-bla HEK293T, beta-lactamase FRET ratio, 16 h; activity change, negative = inhibition: at 61 µM (top of the series) unless noted
UniProt P11473, sequence (P11473 whole entry, looked up): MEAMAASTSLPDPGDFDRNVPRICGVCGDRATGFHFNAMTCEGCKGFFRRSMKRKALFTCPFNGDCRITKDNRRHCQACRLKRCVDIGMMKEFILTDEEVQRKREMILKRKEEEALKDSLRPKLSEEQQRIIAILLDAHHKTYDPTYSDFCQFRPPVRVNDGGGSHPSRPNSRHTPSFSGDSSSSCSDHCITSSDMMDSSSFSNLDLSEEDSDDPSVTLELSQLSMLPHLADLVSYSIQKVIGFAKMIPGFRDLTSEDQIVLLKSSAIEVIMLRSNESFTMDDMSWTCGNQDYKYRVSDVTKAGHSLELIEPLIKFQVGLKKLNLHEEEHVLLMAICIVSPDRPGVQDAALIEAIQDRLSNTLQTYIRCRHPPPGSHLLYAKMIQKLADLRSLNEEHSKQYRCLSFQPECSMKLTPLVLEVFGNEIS
In short: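 After VDR-bla cells are plated and left 4 h at 37C, DMSO-dissolved compounds and 3 nM (final) calcitriol agonist are added. Incubation continues 16 h at 37C; FRET beta-lactamase substrate then develops 2 h at room temperature.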
Tags give direction and shape of the fitted curve or compound fluorescence and quenching.

O=C1CCCO1
ratio activity, negative = inhibition [1]: inconclusive: 9.17% | activity change, negative = cytotoxicity [2]: inconclusive: 30.3% [at 62.6 µM] | activation [3]: inconclusive: 13.5% | Potency [4]: inconclusive: 68.6 µM [cytotoxic, single point] | Potency [5]: inconclusive: 61.6 µM [cytotoxic, single point] | Potency [6]: inconclusive: 21.9 µM [rising, single point] | Potency [7]: inconclusive: 54.9 µM [cytotoxic, single point] | Potency [8]: inactive and inconclusive: 54.9 µM [cytotoxic, partial curve] | Potency [9]: inconclusive: 61.6 µM [cytotoxic, partial curve, poor fit] | Potency [10]: inconclusive: 54.9 µM [cytotoxic, single point] | Potency [11]: inactive

Clc1ccc(C(OCCN2CCCCC2)c2ccccc2)cc1 (centres undefined)
Potency [1]: inactive | Potency [3]: inconclusive: 26.6 µM [partial curve] | Potency [4]: inconclusive: 29.8 µM [cytotoxic, single point] | Potency [12]: inconclusive: 4.22 µM [cytotoxic, single point] | Potency [5]: inconclusive: 10.6 µM [cytotoxic, partial curve] | Potency [7]: inconclusive: 33.5 µM [cytotoxic, partial curve, poor fit] | Potency [8]: inconclusive: 13.3 µM [cytotoxic, partial curve, poor fit] | Potency [9]: inconclusive: 3.76 µM [cytotoxic, partial curve, poor fit] | Potency [11]: inconclusive: 30.1 µM [cytotoxic, partial curve, poor fit]

CC(c1ccc(O)cc1)c1ccc(O)cc1
Potency [1]: active: 36.5 µM | Potency [2]: inactive | Potency [3]: active: 25.6 µM | viability change, negative = cytotoxic [8]: inconclusive: 34% | Potency [11]: inconclusive: 57.8 µM [rising, partial curve, poor fit]

O=C(NC(=O)c1c(F)cccc1F)Nc1cc(Cl)c(Oc2ncc(C(F)(F)F)cc2Cl)c(Cl)c1
ratio activity, negative = inhibition [1]: inconclusive: -20.3% | Potency [3]: inconclusive: 2.08 µM [rising, full curve, poor fit] | Potency [4]: inconclusive: 0.657 µM [rising, full curve, poor fit] | Potency [13]: inconclusive: 33.2 µM | Potency [5]: inconclusive: 21 µM [cytotoxic, partial curve, poor fit] | activation [6]: inconclusive: -1.65% | Potency [14]: inconclusive: 10.5 µM [full curve] | Potency [8]: active: 37.3 µM | Potency [15]: inconclusive: 5.26 µM [rising, full curve, poor fit] | Potency [16]: inconclusive: 2.96 µM [falling, full curve] | Potency [17]: inconclusive: 52.6 µM [activator, single point] | Potency [9]: inconclusive: 46.9 µM [cytotoxic, single point] | Potency [10]: inconclusive: 14.8 µM [cytotoxic, partial curve] | Potency [11]: inactive
